In PMC12136788:
Some of the results follow.

T1: UNK ZnF1-3 (human, UniProt Q9C0B0 31-174)
T1 sequence: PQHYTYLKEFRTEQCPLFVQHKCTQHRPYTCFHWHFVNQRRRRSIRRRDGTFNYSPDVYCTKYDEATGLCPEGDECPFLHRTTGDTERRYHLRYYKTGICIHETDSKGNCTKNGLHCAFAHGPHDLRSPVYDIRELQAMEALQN

B1: chr4:95690885:95690886:+_ENSMUSG00000028572_ENSMUST00000156910|mus_mus|mus_mus_mus_hu_False|28_88 (ssRNA)
RNA: GGGAGUUCUACAGUCCGACGAUCUUUAGAAAAUGUUAAAUACCAUGAGCAUGCUAAUUCAAAGGCUUAUUUUAUUUUACCAGAAGUCACAGGCAAGCAGACACUACAAACAUACAAGAAAAUGAAACUCAACAAUAUAACUGUCAACAGAGGAUUGAGCAUCA
B2: chr6:42629286:42629287:-_ENSMUSG00000036667_ENSMUST00000045054|mus_mus|FALSE|FALSE (ssRNA)
RNA: GGGAGUUCUACAGUCCGACGAUCAAAUAAAACCUUAUGACCAGUUACAACUACCCGACCCCGGCCAUAGCGAGCUGCAGCUAUCACACAGCCAUGGUAGGUAUCUAGCCCCAAAGGAAAAGCCAAAGACCCAUGAACUAGUAGCAACAGAGGAUUGAGCAUCA
B3: chr2:198351390:198351391:-_ENSG00000144381_ENST00000345042|hu_hu|hu_hu_hu_mus_False|88_108 (ssRNA)
RNA: GGGAGUUCUACAGUCCGACGAUCUCAUUCUCACUCUCCACAGAAAGGCUGCUUAACAACUCUCAUGUGGUGACACAGCGCUACAGUCCUGAUGCUCACAGAACAGUAGAGAUGCCUCAGUGAUUUAAGUUGAAAGCAGGACACCAACAGAGGAUUGAGCAUCA
B4: chr11:68312385:68312386:+_ENSG00000110075_ENST00000393800|hu_hu|FALSE|FALSE (ssRNA)
RNA: GGGAGUUCUACAGUCCGACGAUCCUUGCUGAAGAAACUGGCAAGUAGUGGAUUCAAAGGGGAAUCGUUUAGGAGGAAGCUAUAUAAUUUCAUUAGCAAGGAUUCAUCUUCUCCCAGUCUAUCAUUCAUCUGGGAGACAUCAGACAACAGAGGAUUGAGCAUCA
B5: chr17:2569311:2569312:+_ENSG00000007168_ENST00000397195|hu_hu|FALSE|FALSE (ssRNA)
RNA: GGGAGUUCUACAGUCCGACGAUCUGUCCAUUUUUUUUCCAAAAGACCAGCAUACUUUUUAUCUAAUUCUUCAUUCACAUCUAAUUCAGCUUCCUUUUUAAAAACUGAAUAUGCCUCUUCAUAGCCAUUUGAACGAAGAUAAUCCAACAGAGGAUUGAGCAUCA
B6: chr7:108212191:108212192:+_ENSG00000128590_ENST00000249356|hu_hu|FALSE|FALSE (ssRNA)
RNA: GGGAGUUCUACAGUCCGACGAUCGUUAUCAUUAAAAUGCAGAUUGCAAAGAUGAAAAUUGACUGGGGAGUAGCCAUUUCUAAUAUCCUGCACCCUCCGACUACUGCUGCUCCUCCACAGAGCUGAGGCGCUGGCGACCCUGACCAACAGAGGAUUGAGCAUCA
B7: chr16:87451109:87451110:-_ENSG00000140948_ENST00000268616|hu_mus|FALSE|FALSE (ssRNA)
RNA: GGGAGUUCUACAGUCCGACGAUCCUUCUCCAUGGUGAGCUGUUUAAAGACAGGGUAAUACUUGUGCAAGCGCAGCUUCCUAAGCCAGUCUAAAAUCCCAUUCUGCUCCUGGGGCUGAGGGGUCUGCAGACUGGAGGGCAUAAGCAACAGAGGAUUGAGCAUCA
B8: chr6:13786967:13786968:-_ENSMUSG00000048216_ENSMUST00000115492|mus_hu|FALSE|FALSE (ssRNA)
RNA: GGGAGUUCUACAGUCCGACGAUCGGAGGAUAAGGAUACAGCCUCAGUCAAGUCUCAUGAUCUAGAUAUAAGAACAAGGAAAAGAUAGAUCCAUACAUUUUACUGAAAAUAUAAUCCACAAAGAGAACUGAUCUGAUCUGCAGUCAACAGAGGAUUGAGCAUCA
B9: chr14:76420884:76420885:+_ENSG00000119685_ENST00000298832|hu_hu|motif|central (ssRNA)
RNA: GGGAGUUCUACAGUCCGACGAUCCUACUGCCACUUCUGCUCGAAGGCUUUGGGGACUUUGAGGCAGCAAAAAAAAAAAUACGGUGGACCCCUUGAAGUGCUGGUGGAUGCUUCACCCUCAAUCAUGCACCCAGGAGUGGUGAACAACAGAGGAUUGAGCAUCA
B10: 65871611_65871731_2547_CDS_ENSG00000116675_ENST00000371069|human|control|control (ssRNA)
RNA: GGGAGUUCUACAGUCCGACGAUCAGAGGAGUGGGGCAUGCUGGGCUGAGGCUUAGGCUGUGGCUGCUGCCAGUUGUAGGCACCUCCCUGCUGCCACCCGCCACCCAUAGGCUGGGGAGACGCCUUCUGUGGCGAGCUGAGAGGCAACAGAGGAUUGAGCAUCA
B11: chr1:109605286:109605287:-_ENSG00000197780_ENST00000461096|hu_mus|hu_hu_hu_mus_True|38_88 (ssRNA)
RNA: GGGAGUUCUACAGUCCGACGAUCAAGUUUCAGAGUAACAUUCAGUAUACUUAAAUCAUGCAAUUAUCCUUAUUAUAAGCUAAGCAGAAUAAUAAUUUAAUACAUAGAGUGAACUACACACAAAGCCUGAACCGCGAAAAUGGUCAACAGAGGAUUGAGCAUCA
B12: chr5:32599118:32599119:+_ENSG00000113387_ENST00000502897|hu_mus|FALSE|FALSE (ssRNA)
RNA: GGGAGUUCUACAGUCCGACGAUCAGAAAUACCUUUUCUUCCUGGUUUCAUUUCACCUUCUGAAUCCAUCCAAUAUUCUCUAAUAUCAAUUAGAAUUUUUCCUUUGAAGUCCCGAACACUGACAUAUCUCAUCUUUCCAAUCUGCAACAGAGGAUUGAGCAUCA
B13: chr13:42873578:42873579:+_ENSG00000023516_ENST00000025301|hu_hu|motif|central (ssRNA)
RNA: GGGAGUUCUACAGUCCGACGAUCUUUAGCCAAUGACUUCUGCUGUCCAGAGCUAAUGAGAAUCUUUAAAUCAUGGGUUUCGGAAUGAUGACCAGUAACCGUCUGGGAAGCAGCAUCACACUGGCUCCUUAGCACAGUAAUGUUCAACAGAGGAUUGAGCAUCA
B14: chr4:144465060:144465061:+_ENSG00000153147_ENST00000283131|hu_hu|motif|central (ssRNA)
RNA: GGGAGUUCUACAGUCCGACGAUCAUAGUCUUCUCCUUCGAAGUUAUAAACACUUGACUCUGUAUCCAUUGUAAAGUUUCGGAGUGAACUUUCGCCCAUCUUGGAGAGCUUUUCAUUCAUCUCUGCAGUCUUCUUUGCACCUCUCAACAGAGGAUUGAGCAUCA
B15: chr8:59070621:59070622:+_ENSMUSG00000038206_ENSMUST00000040218|mus_hu|motif|central (ssRNA)
RNA: GGGAGUUCUACAGUCCGACGAUCGAUAAACAAAAUUAGGAAAAAUUCUGCAAAAUUAUUUAGUUCCCCAAGGAAAUUACGGAAAUAGAAAAUGGCAAAAGAAAAAAAGGUUGCACACUGAAGCUUGAUUGUAUACUCAGGCUACAACAGAGGAUUGAGCAUCA
B16: chr5:24319680:24319681:-_ENSMUSG00000028945_ENSMUST00000030787|perfect_dup|motif|central (ssRNA)
RNA: GGGAGUUCUACAGUCCGACGAUCAAGUUGAAGAUGAUAUUCUUGUCCAUUUACUGUGAUCAACUUUGUAAAAGUGUUUUCGGUGGUUGGAUCGUAGGAGUCCACAAAUUGGCCUUCAACAAAUUGAAUCGUCAAUGAGGAUUUCAACAGAGGAUUGAGCAUCA
B17: 72170461_72172070_6263_CDS_ENSG00000066933_ENST00000356056|human|control|control (ssRNA)
RNA: GGGAGUUCUACAGUCCGACGAUCCACUGGAGAUUCACCCAGUGAAUCACGCUGCUCAAGCCUCAUCGUCUUUUCCAGAAUCUGUUCAAAUAGUGCAUAGAGGUCUUUAUACCGUAUGCUUUUCCCAUCAUCCAUCGCCAAUGCCAACAGAGGAUUGAGCAUCA
B18: chr7:75932113:75932114:+_ENSG00000106211_ENST00000248553|hu_hu|hu_hu_hu_mus_False|1_78 (ssRNA)
RNA: GGGAGUUCUACAGUCCGACGAUCCUGCGACCACUCAUCGGGCAACCGGGGCACCCCGAAGGCCUGGUCGAAGAGGCGGCUGUGUGCAGGGUACCAGUCCCGGAAUGGUUCCCAGCUCGGGCUCCGCAGCAGCGAGAGGACGCGCAACAGAGGAUUGAGCAUCA
B19: chrX:50352303:50352304:+_ENSMUSG00000025630_ENSMUST00000026723|mus_mus|FALSE|FALSE (ssRNA)
RNA: GGGAGUUCUACAGUCCGACGAUCCGGCAUAAUGAUUAGGUAUACAAAACAAAUCUAGGUCAUAACCUGGUUCAUCAUCGCUAAUCACGACGCUGGGACUGCGGGUCGGCAUGACGGGACCGGUCGGCUCGCGGCAAAAAGCGGCAACAGAGGAUUGAGCAUCA
B20: chr19:10652113:10652114:+_ENSMUSG00000034445_ENSMUST00000168445|mus_mus|motif|central (ssRNA)
RNA: GGGAGUUCUACAGUCCGACGAUCAAGGAAGCGGCGGAACCACCACUGGAACCCAUAACCCGGCUCUCCCAGCCCGGGUUCGGUCCCACCCUUAGCCACACAGUGGGACACCUUGGGGGCAGGUCUCUGGGACCCGCCGGUCAGCAACAGAGGAUUGAGCAUCA
B21: 46559633_46559753_1807_CDS_ENSG00000123200_ENST00000242848|human|control|control (ssRNA)
RNA: GGGAGUUCUACAGUCCGACGAUCGUCAUGGGCAUCACGAGUGGACCGAGAAUCUCUGGGAUCACGGCUCUCUUUGGUAUCUCUGCUAUAAUCUCUCAUCUCCCUUGAGUCCCGCAUGUCUCUGGAGUCUCUUAGUUCCCUUCGCAACAGAGGAUUGAGCAUCA
B22: chr6:41757443:41757444:+_ENSG00000214736_ENST00000398881|hu_mus|hu_hu_hu_mus_False|18_78 (ssRNA)
RNA: GGGAGUUCUACAGUCCGACGAUCGAACCGUGCAGAGGCAACAUCUCAGCCGACACUGUGGACUCAAGGGGCAGUGGGGGGGGGUUCAGGCAAGGAGAGGGAGUCAACUUCAGCUGCUCAAACUUCAGGAUCUUGUGGUCACAGCAACAGAGGAUUGAGCAUCA

Each binder was assayed against T1, UNK ZnF1-3 (assay: nsRBNS (natural sequence RNA bind-n-seq); RBNS binding buffer (assumed for nsRBNS): 25 mM Tris pH 7.5, 150 mM KCl, 3 mM MgCl2, 0.01% Triton X-100, 500 ug/ml BSA, 20 U/ml SUPERase-In, 4 C; UNK is unkempt and MSI1 is Musashi-1; names of the RNAs are library labels; protein concentration not given here; high values mean tight binding).
B1 showed a binding signal of 2.19 enrichment R.
Binder B2 has a binding signal of 1.07 enrichment R.
B3 gave a binding signal of 1.01 enrichment R.
B4 showed a binding signal of 1.14 enrichment R.
In the case of B5, the binding signal is reported as 0.494 enrichment R.
In the case of B6, the binding signal is reported as 1.2 enrichment R.
Binder B7 has a binding signal of 1.15 enrichment R.
B8 gave a binding signal of 1.06 enrichment R.
For B9, the binding signal was 1.77 enrichment R.
In the case of B10, the binding signal is reported as 1.26 enrichment R.
B11 showed a binding signal of 0.61 enrichment R.
In the case of B12, the binding signal is reported as 0.615 enrichment R.
B13 gave a binding signal of 0.869 enrichment R.
Work on B14 yielded a binding signal of 0.348 enrichment R.
Work on B15 yielded a binding signal of 2.85 enrichment R.
Work on B16 yielded a binding signal of 0.867 enrichment R.
B17 showed a binding signal of 0.575 enrichment R.
Binder B18 has a binding signal of 0.463 enrichment R.
In the case of B19, the binding signal is reported as 0.466 enrichment R.
In the case of B20, the binding signal is reported as 0.505 enrichment R.
In the case of B21, the binding signal is reported as 0.749 enrichment R.
B22 gave a binding signal of 2.27 enrichment R.
